The source gives no read counts; variants with many changes may rest on few reads.
B1: OR4K15 (parent)
chain: GUUAACGGUCAUAGGCCAUGGAAACUAGGAGCACCAUUUCGCUGCCAGUGAAGAAAUGAACAAAGAAAAUCUGGGCCAGGCAGGCAUCAAAAGAAAUAGUCUUGCGCUCAACCAGAAAGUCUGUAAUCAUUUUAAGGGUA

Variants of: B1
Test: self-cleavage, relative activity (ratio to wild type); higher = more cleavage; in vitro, sequencing; the parent is a self-cleaving ribozyme

| Variant | self-cleavage |
| --- | --- |
| A52G A60G A118G | 0.57 |
| A54G U108C A117G | 0 |
| A52G A117G U130C | 0.62 |
| A54G A89G A111G | 0.03 |
| A54G A59G A125U A129G | 0.99 |
| A54G U72A A91G | 0.29 |
| A52G A86G U108C | 0 |
| A54G A68G U131C | 0.92 |
| A51U A67G A78G A118G | 0.12 |
| A54G A69G U108C | 0.05 |
| A55G A60G U87C | 0.46 |
| G53A A60G U122C | 1.64 |
| A55G A64G A86G G106U | 0.02 |
| A52G A56G A96G U103A G104A A111G | 0.02 |
| A52U U100A U132C | 0.33 |
| A52G G123A U139A | 1.23 |
| A54G A126G U139G | 0.42 |
| A54G U130C A134G | 0.83 |
| A54G A67G G83U A89G U108C A126G | 0 |
| A54G A118U U139C | 1.05 |
| A51U A67G A69G | 0.5 |
| A55G A64G G84U U87C U97C C113U | 0.02 |
| A52G A62G A110U | 1.45 |
| A52G A67G U87C A96C U139A | 0.93 |

| Variant | self-cleavage |
| --- | --- |
| A52G A95G U102C A125G | 1.67 |
| A51U A59C U103C A116U | 0.02 |
| A55C A78C U120A G137U | 0.19 |
| A51U U87C A111G | 0.01 |
| A55G A86G A117G | 0.6 |
| A54G A67G U72C A90G A111G A125G | 0.01 |
| A55G A60G A129G | 0.63 |
| A52U U97C U108A | 0 |
| A55G A63G G74U A118G | 0.09 |
| A54G A118G A135G | 1.31 |
| A54G A126G U127C | 0.21 |
| A51U A82G A90U U120C | 0.6 |
| G53U A96G U100C A116G A118G | 0.32 |
| A52G A67G A114G | 0.89 |
| A52U A68U U120C | 1.17 |
| A55G A60G A64U A82U | 0.15 |
| A55G A111C A114G | 0.01 |
| A55G A116G U124C | 0.11 |
| A55G C76A A117G | 0.1 |
| A54G A59G U130C | 0.69 |
| A54G U108C U122A | 0.03 |
| A54G A95U A116G | 0.71 |
| A54G A90G U108C A140C | 0.05 |
| A54G U57A U130C | 1.12 |

| Variant | self-cleavage |
| --- | --- |
| A55G A66G A67G | 0.88 |
| A52U A59G C61U A69G A78G U87G A89G | 0.12 |
| A55G U87C A116G | 0.09 |
| A52G U72A A90G U131C | 0.12 |
| A52G A62G A96U A129G | 1.1 |
| A55G A86G A96G | 0.39 |
| A55G A82C U120C | 0.13 |
| A54G A55G A59U U70C U97C A117G | 0.44 |
| A55G A64G A89G U102C | 1.1 |
| A55G A60G A67G U70C A114C | 0.02 |
| A54G A82U A90G C109U A126G U127A | 0.02 |
| A52U A86U A89G U120C A134G | 1.27 |
| A52G A69U C76A A92G A110G U131C | 0.04 |
| A52G G53U C105U | 0.22 |
| A54G C77U A134G | 1.15 |
| A54G A68G A98G U108C | 0.01 |
| A55G A59U A140G | 1.57 |
| A51U A56G U57C A82G | 0.51 |
| A52G U122C U130C | 0.68 |
| A54U A68U U87C A135G | 1.25 |
| A52G A55G U127A | 1.71 |
| A54G A90G A116G | 0.47 |
| A54U A111G U122C U127C | 0 |
| A51U U57C A95G A117G | 2.56 |

| Variant | self-cleavage |
| --- | --- |
| A54G A91G A129G U132A | 0.43 |
| A51U A98U A118G A126G | 0.69 |
| A52G U70A U72A A96G | 0.28 |
| A55G A62U A64G A126U | 1.42 |
| A52G U70C U122C | 0.62 |
| A55G A62G U139C | 1.38 |
| A54U A66U A96G | 1.74 |
| A55G A56C A92G U103A | 0.21 |
| A52G A114G U131C | 0.4 |
| A55G A59U A60G | 1.33 |
| A55G A82U A94G U132C | 0.17 |
| A55G A66G A117C | 0.41 |
| A52U U57C U70C U97A A111G U122A A129G | 0 |
| A55G A66G G74A A111G U120C | 0.01 |
| G53U A59G C77U | 1.73 |
| A52G A55G A92G | 0.96 |
| A55G A82G A98G | 0.11 |
| A55G A59G U122C | 0.6 |
| A55G A64G A140U | 1.58 |
| A54G A86G A90U A126G | 1.05 |
| A54U A68G A82G A129G | 0.45 |
| A52G A63G C77U A89C | 2.09 |
| A55C A95G U132C | 2.6 |
| A55G A64G U103C U131C U132C | 0.78 |

| Variant | self-cleavage |
| --- | --- |
| A51U A95G A126G | 1.48 |
| A55G A78U A96G | 0.37 |
| A52G A89U A94U | 1.66 |
| A55G G80U A92G | 0.19 |
| A52G U57C U70C | 0.25 |
| G53U A66G U122A | 0.91 |
| A52G A95G A125U | 1.65 |
| A52U A125U A129U | 0.76 |
| A52G U122C A134U A140U | 0.75 |
| A54G A94G U102C A134G | 1.17 |
| G53A U97C U132A | 1.28 |
| A52G A56G A82G C121A | 1.07 |
| A54G A56G U70C U127C | 0.43 |
| A54G A63G A114U U127C | 0.02 |
| A51U U103C A114C | 0 |
| A55G A78U U87C U122A | 0.1 |
| A54G A60G U100C U103G A110G | 0.02 |
| A52G A69U A89G A116U A118G U127C | 0.01 |
| A55G A63G A66G U97A U120C | 1.68 |
| A54U A60G U72A A110G U132C | 0.02 |
| A52G A59G U122A | 1.53 |
| A52G A59U U108A A116U | 0.03 |
| A55C A60G A68G A90G U108C | 0.04 |
| A54U A95G A114C G123A | 0.07 |

| Variant | self-cleavage |
| --- | --- |
| A52G A56G A59G A92G U120G U131C | 0.89 |
| A55C U57C C76U | 0.17 |
| G53A A54G A82U A111G | 0.04 |
| A52U A90G U100C | 1.13 |
| A51U U72A U87A A90G A95G | 0.24 |
| A54U C109U A125G | 0.06 |
| A52G U70C A117C | 0.17 |
| A54C A63G U124C | 0.45 |
| A54G A66G G74C A96U A117G A140G | 0.13 |
| A54G G58U C101A A117G | 0.05 |
| A52U U57C U97C A98G | 0.81 |
| A52G A55G G106U | 0.05 |
| A54G U57A A66G C88A | 1.25 |
| A52G G74U A95G U131C | 0.04 |
| A54G A82G A90G U122A | 0.06 |
| A54G A55G A116G A135U | 0.44 |
| A54U A82G A111G | 0.06 |
| A54U U72A A140G | 0.41 |
| A55G A62G A116C U131C | 0.16 |
| A55G C71U A82G | 0.36 |
| A52G A59G U120C | 1.03 |
| A52U A60C U87C U127C | 1.95 |
| A54G A90C A98G | 0.19 |
| A54G U72A A82G A125G | 0.05 |

| Variant | self-cleavage |
| --- | --- |
| A52G U72C U122C | 0.15 |
| A55G A90G U102C | 0.62 |
| A52U A68U U108C | 0.01 |
| A52G A67G A89G U122A U127C | 1.85 |
| A52G A78U A110G | 0.09 |
| A55G A67U C85U | 0.82 |
| A54G U57A A135U | 2.05 |
| A52G A59G A68G | 1.15 |
| A55G A90U A135G | 2.84 |
| A54G U122A U131C | 0.95 |
| A55G A126G U132C | 1.25 |
| A52G A59U A117G G119A U124A | 1.42 |
| A55G U100A C121G | 1.03 |
| A52G G79A A140U | 0.24 |
| A54G A69G A89G U97A A98G U131C | 0.89 |
| A54U A62U U72C | 0.26 |
| A55G A64G U127C | 1.38 |
| A55G A62G U127G A129U U131C | 1.23 |
| A55G U57C U102G | 0.58 |
| A52G A67G A86U A110G | 0.15 |
| A52G G80A U100C A129G | 0.43 |
| A54U C71A A78C | 0.15 |
| A52G A95G G106A | 0.02 |

From the RNAGym collection of RNA variant scans (doi:10.7554/elife.90254)
